Measurements reported in a collection of fitness landscapes (doi:10.1126/science.1257360).
The other results are listed elsewhere or left out.

B1: PhoQ; a variant is named by its letters at X, in order, P23837 (parent)
chain: MKKLLRLFFPLSLRVRFLLATAAVVLVLSLAYGMVALIGYSVSFDKTTFRLLRGESNLFYTLAKWENNKLHVELPENIDKQSPTMTLIYDENGQLLWAQRDVPWLMKMIQPDWLKSNGFHEIEADVNDTSLLLSGDHSIQQQLQEVREDDDDAEMTHSVAVNVYPATSRMPKLTIVVVDTIPVELKSSYMVWSWFIYVLSANLLLVIPLLWVAAWWSLRPIEALAKEVRELEEHNRELLNPATTRELTSLVRNLNRLLKSERERYDKYRTTLTDLTHSLKTPLXXLQXXLRSLRSEKMSVSDAEPVMLEQISRISQQIGYYLHRASMRGGTLLSRELHPVAPLLDNLTSALNKVYQRKGVNISLDISPEISFVGEQNDFVEVMGNVLDNACKYCLEFVEISARQTDEHLYIVVEDDGPGIPLSKREVIFDRGQRVDTLRPGQGVGLAVAREITEQYEGKIVAGESMLGGARMEVIFGRQHSAPKDE

Variants of: B1
Assay: enrichment ratio after two sorts for PhoP signalling (ratio (wild type AVST 3.29)); higher = more functional
Details: with PhoP (E. coli)

| Variant | enrichment ratio |
| --- | --- |
| MRAP | ≤ 0.25 |
| FGWQ | ≤ 0.25 |
| HFQC | ≤ 0.25 |
| RQSR | ≤ 0.25 |
| QTSL | 3.2 |
| RAGW | ≤ 0.25 |
| PCSI | ≤ 0.25 |
| GVMF | 2.88 |
| VDFM | ≤ 0.25 |
| MVYT | ≤ 0.25 |
| PQRD | ≤ 0.25 |
| NMLW | ≤ 0.25 |
| MENY | ≤ 0.25 |
| TAHM | 14.1 |
| YMTR | ≤ 0.25 |
| TIYF | ≤ 0.25 |
| TMYS | ≤ 0.25 |
| RGET | ≤ 0.25 |
| SKSE | ≤ 0.25 |
| QIPH | ≤ 0.25 |
| YLVV | ≤ 0.25 |
| SWNK | ≤ 0.25 |
| NTDC | ≤ 0.25 |
| TWTT | ≤ 0.25 |
| NGVN | ≤ 0.25 |
| RLHE | ≤ 0.25 |

| Variant | enrichment ratio |
| --- | --- |
| RNQP | ≤ 0.25 |
| NSVA | ≤ 0.25 |
| DMTI | ≤ 0.25 |
| VEDV | ≤ 0.25 |
| MSAA | 4.87 |
| WRCM | ≤ 0.25 |
| NQFM | ≤ 0.25 |
| PMKR | ≤ 0.25 |
| LQRI | ≤ 0.25 |
| FYDQ | ≤ 0.25 |
| IKQQ | ≤ 0.25 |
| MILA | 1.31 |
| QFQY | ≤ 0.25 |
| DHKI | ≤ 0.25 |
| PYTF | ≤ 0.25 |
| ESRH | ≤ 0.25 |
| SNHC | ≤ 0.25 |
| QACL | 1.94 |
| VQHM | ≤ 0.25 |
| FTNH | ≤ 0.25 |
| SYEN | ≤ 0.25 |
| YQFG | ≤ 0.25 |
| GVVC | ≤ 0.25 |
| PQFC | ≤ 0.25 |
| WMTA | ≤ 0.25 |
| TGTI | 13.2 |

| Variant | enrichment ratio |
| --- | --- |
| FQDV | ≤ 0.25 |
| QRCY | ≤ 0.25 |
| QSNA | ≤ 0.25 |
| IVIG | ≤ 0.25 |
| QCMT | ≤ 0.25 |
| RMDR | ≤ 0.25 |
| KKRS | ≤ 0.25 |
| RRSQ | ≤ 0.25 |
| HLPM | ≤ 0.25 |
| WDQE | ≤ 0.25 |
| EFMG | ≤ 0.25 |
| PGMG | ≤ 0.25 |
| KKPI | ≤ 0.25 |
| GHLY | ≤ 0.25 |
| KEML | ≤ 0.25 |
| NLFW | ≤ 0.25 |
| IMAS | 0.485 |
| HGYQ | ≤ 0.25 |
| GQSG | 4.15 |
| LEAV | ≤ 0.25 |
| NIDI | ≤ 0.25 |
| TAQA | ≤ 0.25 |
| IMWP | ≤ 0.25 |
| WKHV | ≤ 0.25 |
